31 sequences from paper PMC12820563 can be followed below.

Some of the results follow. The list includes weakly bound sequences.

This assay has as its target T1, MBP-FoxP3dN (UniProt Q99JB6).
T1 sequence: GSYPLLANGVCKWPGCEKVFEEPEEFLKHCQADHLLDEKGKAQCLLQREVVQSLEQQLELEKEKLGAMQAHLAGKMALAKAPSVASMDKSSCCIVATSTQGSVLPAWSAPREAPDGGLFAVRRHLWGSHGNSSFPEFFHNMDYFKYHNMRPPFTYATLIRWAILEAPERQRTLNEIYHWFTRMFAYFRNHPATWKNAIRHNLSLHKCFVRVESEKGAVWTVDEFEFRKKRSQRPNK
Nature of the assay: PD-seq (MBP pull-down with sequencing). As to conditions: 20 mM Tris-HCl pH 7.5, 100 mM NaCl, 1.5 mM MgCl2, 0.4 uM protein, 0.1 uM dsDNA library, 30 min, room temperature, amylose pull-down; high values mean tight binding; double strand, one strand shown.
For the sequence “GATGATTGTTCTCCCAGCTGATGAATTAAGGCTGTCGAGTAAACAAATTTTCCTAATCTTTCTGTTCAAGCGCCATCTAC”, the binding signal (RPM ratio (pull-down/input)) was found to be 0.532.
The figure for “GATGATTGTTCTCCCAGCTGATGAATTAGGGGGATCGAGTAAACAAATTTTCCTAATCTTTCTGTTCAAGCGCCATCTAC” is 0.395.
In the case of “GATGATTGTTCTCCCAGCTGATGAATTGCGGCCCTCGAGTAAACAAATTTTCCTAATCTTTCTGTTCAAGCGCCATCTAC”, the binding signal (RPM ratio (pull-down/input)) came to 0.884.
“GATGATTGTTCTCCCAGCTGATGAATTCTGAGCCTCGAGTAAACAAATTTTCCTAATCTTTCTGTTCAAGCGCCATCTAC”: the binding signal (RPM ratio (pull-down/input)) is 0.516.
For “GATGATTGTTCTCCCAGCTGATGAATTACCCGTTTCGAGTAAACAAATTTTCCTAATCTTTCTGTTCAAGCGCCATCTAC”, the binding signal (RPM ratio (pull-down/input)) amounted to 0.334.
In the case of “GATGATTGTTCTCCCAGCTGATGAATTAGTTGCGTCGAGTAAACAAATTTTCCTAATCTTTCTGTTCAAGCGCCATCTAC”, the binding signal (RPM ratio (pull-down/input)) was found to be 3.34.
With “GATGATTGTTCTCCCAGCTGATGAATTTTTCAACTCGAGTAAACAAATTTTCCTAATCTTTCTGTTCAAGCGCCATCTAC”, the binding signal (RPM ratio (pull-down/input)) was found to be 0.287.
In the case of “GATGATTGTTCTCCCAGCTGATGAATTCCCCCATTCGAGTAAACAAATTTTCCTAATCTTTCTGTTCAAGCGCCATCTAC”, the binding signal (RPM ratio (pull-down/input)) came to 0.264.
For the sequence “GATGATTGTTCTCCCAGCTGATGAATTTGAGCCCTCGAGTAAACAAATTTTCCTAATCTTTCTGTTCAAGCGCCATCTAC”, the binding signal (RPM ratio (pull-down/input)) is 0.434.
The same measure for “GATGATTGTTCTCCCAGCTGATGAATTCATCGTATCGAGTAAACAAATTTTCCTAATCTTTCTGTTCAAGCGCCATCTAC”: 0.859; for “GATGATTGTTCTCCCAGCTGATGAATTTTGGTAGTCGAGTAAACAAATTTTCCTAATCTTTCTGTTCAAGCGCCATCTAC”: 0.754; for “GATGATTGTTCTCCCAGCTGATGAATTTGTTTTGTCGAGTAAACAAATTTTCCTAATCTTTCTGTTCAAGCGCCATCTAC”: 7.57.
Turning to “GATGATTGTTCTCCCAGCTGATGAATTAGTAGGTTCGAGTAAACAAATTTTCCTAATCTTTCTGTTCAAGCGCCATCTAC”, the binding signal (RPM ratio (pull-down/input)) amounted to 1.09.
For the sequence “GATGATTGTTCTCCCAGCTGATGAATTTGCCTGCTCGAGTAAACAAATTTTCCTAATCTTTCTGTTCAAGCGCCATCTAC”, the binding signal (RPM ratio (pull-down/input)) was determined as 1.31.
The figure for “GATGATTGTTCTCCCAGCTGATGAATTCAATAGCTCGAGTAAACAAATTTTCCTAATCTTTCTGTTCAAGCGCCATCTAC” is 0.877; for “GATGATTGTTCTCCCAGCTGATGAATTCCAGCTGTCGAGTAAACAAATTTTCCTAATCTTTCTGTTCAAGCGCCATCTAC” it is 0.355; for “GATGATTGTTCTCCCAGCTGATGAATTTAGGCAGTCGAGTAAACAAATTTTCCTAATCTTTCTGTTCAAGCGCCATCTAC” it is 0.47.
Turning to “GATGATTGTTCTCCCAGCTGATGAATTGGGGTACTCGAGTAAACAAATTTTCCTAATCTTTCTGTTCAAGCGCCATCTAC”, the binding signal (RPM ratio (pull-down/input)) stood at 0.652.
The same measure for “GATGATTGTTCTCCCAGCTGATGAATTATTATTTTCGAGTAAACAAATTTTCCTAATCTTTCTGTTCAAGCGCCATCTAC”: 1.61.
The same measure for “GATGATTGTTCTCCCAGCTGATGAATTAAGTCAATCGAGTAAACAAATTTTCCTAATCTTTCTGTTCAAGCGCCATCTAC”: 0.346.
As for “GATGATTGTTCTCCCAGCTGATGAATTAGGTATCTCGAGTAAACAAATTTTCCTAATCTTTCTGTTCAAGCGCCATCTAC”, the binding signal (RPM ratio (pull-down/input)) worked out at 3.33.
Regarding “GATGATTGTTCTCCCAGCTGATGAATTTCAGGAGTCGAGTAAACAAATTTTCCTAATCTTTCTGTTCAAGCGCCATCTAC”, the binding signal (RPM ratio (pull-down/input)) turned out to be 0.214.
Turning to “GATGATTGTTCTCCCAGCTGATGAATTGAGAGTCTCGAGTAAACAAATTTTCCTAATCTTTCTGTTCAAGCGCCATCTAC”, the binding signal (RPM ratio (pull-down/input)) is 1.06.
As to “GATGATTGTTCTCCCAGCTGATGAATTAGGGGAATCGAGTAAACAAATTTTCCTAATCTTTCTGTTCAAGCGCCATCTAC”, the binding signal (RPM ratio (pull-down/input)) worked out at 0.219.
Turning to “GATGATTGTTCTCCCAGCTGATGAATTGCTGGTTTCGAGTAAACAAATTTTCCTAATCTTTCTGTTCAAGCGCCATCTAC”, the binding signal (RPM ratio (pull-down/input)) came to 0.923.
For the sequence “GATGATTGTTCTCCCAGCTGATGAATTCTGGCTGTCGAGTAAACAAATTTTCCTAATCTTTCTGTTCAAGCGCCATCTAC”, the binding signal (RPM ratio (pull-down/input)) was found to be 0.332.
The same measure for “GATGATTGTTCTCCCAGCTGATGAATTGCAGCTCTCGAGTAAACAAATTTTCCTAATCTTTCTGTTCAAGCGCCATCTAC”: 0.924; for “GATGATTGTTCTCCCAGCTGATGAATTTGCGCGGTCGAGTAAACAAATTTTCCTAATCTTTCTGTTCAAGCGCCATCTAC”: 0.709.
With “GATGATTGTTCTCCCAGCTGATGAATTATCCTTTTCGAGTAAACAAATTTTCCTAATCTTTCTGTTCAAGCGCCATCTAC”, the binding signal (RPM ratio (pull-down/input)) is 0.278.
As to “GATGATTGTTCTCCCAGCTGATGAATTAGTCCTTTCGAGTAAACAAATTTTCCTAATCTTTCTGTTCAAGCGCCATCTAC”, the binding signal (RPM ratio (pull-down/input)) came out at 0.643.
The same measure for “GATGATTGTTCTCCCAGCTGATGAATTTCTGGGGTCGAGTAAACAAATTTTCCTAATCTTTCTGTTCAAGCGCCATCTAC”: 0.205.
